In paper PMC7819943, “Rice protein-binding microarrays: a tool to detect cis-acting elements near promoter regions in rice” one finds binding signal data, which are given here for 42 sequences.

The list shows a part of the results.

This assay concerns the target T1, OsWOX13 (Oryza sativa, UniProt Q5QMM3 1-267).
T1 sequence: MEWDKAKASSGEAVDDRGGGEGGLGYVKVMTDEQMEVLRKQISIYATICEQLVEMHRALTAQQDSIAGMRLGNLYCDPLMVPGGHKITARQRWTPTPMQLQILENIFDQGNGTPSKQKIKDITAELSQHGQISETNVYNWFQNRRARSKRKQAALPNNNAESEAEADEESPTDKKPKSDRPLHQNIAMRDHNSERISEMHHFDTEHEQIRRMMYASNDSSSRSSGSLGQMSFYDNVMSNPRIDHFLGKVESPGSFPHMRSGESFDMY
As to the kind of experiment: protein-binding microarray (RPBM); PBS, 2% BSA, 51.3 ng/ul salmon testes DNA, 50 uM zinc acetate, 200 nM TF, 25 C, 1 h; high values mean tight binding. The settings on record: protein: recombinant; tags: N-terminal polyhistidine and DsRed monomer fusion (pET32a); label: CyDye5-dUTP incorporated in the synthesized complementary strand; 3' TTTTT single-stranded linker to array surface; dsDNA, one strand shown. The essentials:
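An Axon 4000B scanner gave the binding signal as per-feature fluorescence intensity in arbitrary units. This followed washing of a custom Agilent array that had been incubated for 1 h at 25 °C with 200 nM protein in PBS, 2% BSA, salmon testes DNA and 50 µM zinc acetate. The proteins were transcription factors fused at the N-terminus to polyhistidine and DsRed, expressed in E. coli BL21-CodonPlus and purified on Ni–NTA.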
Regarding “ATCTGTTCATTTGATTTGAAGTCTAAATCCACTTTCCTCACGGAGTCACCTAGTGCAG”, the binding signal is 5580 fluorescence intensity (a.u.).
For the sequence “ATGATTTGCACCGAGAAAACGAACGATATGCTACTCTCTACGGAGTCACCTAGTGCAG”, the binding signal was 10300 fluorescence intensity (a.u.).
Then “ACCCCACTGGATTGATGAGGATTATGGATTAATACTGGAGCGGAGTCACCTAGTGCAG”, with 26900 fluorescence intensity (a.u.).
Then “AGTGTGATTGCCCTCATGGATTCAGCGGAGATGCCATAAACGGAGTCACCTAGTGCAG”, with 16600 fluorescence intensity (a.u.); and “TAGATTGGACCACTATTAAGGGAACACCGTCACATAGGTGCGGAGTCACCTAGTGCAG”, with 5850 fluorescence intensity (a.u.).
The same measure for “TAAATTGAATGGTTTTGTAAGTTGAGGGACGTCATATATCCGGAGTCACCTAGTGCAG”: 21500 fluorescence intensity (a.u.); for “TACCAATCCCACAAGTTAACCGGAAGTTATATGCATGCTGCGGAGTCACCTAGTGCAG”: 3270 fluorescence intensity (a.u.).
For “TTAATTAGGCTTAATAGATTCGTCTAGCAGTTTACATGCGCGGAGTCACCTAGTGCAG”, the binding signal was 39500 fluorescence intensity (a.u.).
The same measure for “TATAAATAGACGATGAGGTCGCCCCTTTCCTCCATACACACGGAGTCACCTAGTGCAG”: 6330 fluorescence intensity (a.u.); for “CCAATTAATCATCAAGCTATCTTTGTGCAGGGGAAATCAACGGAGTCACCTAGTGCAG”: 6200 fluorescence intensity (a.u.); for “ATAATGATACTTAATTAATCATGTGCTAATAATCACCCGTCGGAGTCACCTAGTGCAG”: 21000 fluorescence intensity (a.u.).
For “TACTAATTGTGTGCTTGGAGTCCAAAATTAGCAAAGGTAGCGGAGTCACCTAGTGCAG”, the binding signal is 10100 fluorescence intensity (a.u.).
Regarding “GCTAGATTGGCCGCTGGCTGTTAGCTAGGACTAACACACACGGAGTCACCTAGTGCAG”, the binding signal was 24800 fluorescence intensity (a.u.).
Then “AGCTCCGGTAATTACGATTTGTAGATTGGGATCCAGGGAACGGAGTCACCTAGTGCAG”, with 27700 fluorescence intensity (a.u.).
The same measure for “TTAAATATAATTAGTATACTATGACAATGATAAATAAGTTCGGAGTCACCTAGTGCAG”: 16300 fluorescence intensity (a.u.); for “GAGCCTAATTAGGCCATGATTAGCCATAAGTGCTACAGTACGGAGTCACCTAGTGCAG”: 40800 fluorescence intensity (a.u.); for “AAGATTAAAATTTTCGTGACACACTTTTCAAACTGTTAAACGGAGTCACCTAGTGCAG”: 6960 fluorescence intensity (a.u.).
The same measure for “AATGTAGAAGTATTCAATTAACAGGTGATCTTTCTACTCTCGGAGTCACCTAGTGCAG”: 3490 fluorescence intensity (a.u.); for “TGGTTTAATTTCATCAGTTTTCCTCCATTTCCTTCTTTAGCGGAGTCACCTAGTGCAG”: 4760 fluorescence intensity (a.u.); for “TTTATTTGATGATTGGTATTCTATGGTTACTTTCCCAGGGCGGAGTCACCTAGTGCAG”: 44900 fluorescence intensity (a.u.).
Consider “GCTCAAATTTATATGAAAATCAGTTAAATATATCAAAACCCGGAGTCACCTAGTGCAG”, for which the binding signal is 3240 fluorescence intensity (a.u.).
Take “GTCACATCGGACGTTTGATTGGATGTCGGAAAGAGTTTTCCGGAGTCACCTAGTGCAG”: the binding signal was 18200 fluorescence intensity (a.u.).
Then “GGTCTCCTCCAATAATTAATTTGAACCAGTAATAGCAAGACGGAGTCACCTAGTGCAG”, with 9830 fluorescence intensity (a.u.); and “TAGATAATACATAATTAATTATTTGCTAAACTATTACTTCCGGAGTCACCTAGTGCAG”, with 36600 fluorescence intensity (a.u.); and “ATTACATATTGATTATTATAAATTGGAAAATAGATATATTCGGAGTCACCTAGTGCAG”, with 19400 fluorescence intensity (a.u.).
The same measure for “TGGAATTAACTGTTGATGACACGGTACTACGGTAGAGCTCCGGAGTCACCTAGTGCAG”: 12000 fluorescence intensity (a.u.).
The same measure for “AATATTAAATGACATAATTTATATGCAACATAATACCATACGGAGTCACCTAGTGCAG”: 17400 fluorescence intensity (a.u.).
Regarding “CTGGTAATAGAAAATAATCTAAATCGTTGATTTCATTTGACGGAGTCACCTAGTGCAG”, the binding signal is 7530 fluorescence intensity (a.u.).
Then “AAAATTTTGATGGGCCTGATCTGGGCCACTTTGGGCCTTGCGGAGTCACCTAGTGCAG”, with 4640 fluorescence intensity (a.u.).
Turning to “TCAGTAAATTAAATACTAGAGTCAACAACACACTATCATGCGGAGTCACCTAGTGCAG”, the binding signal is 8570 fluorescence intensity (a.u.).
Consider “GGAAATTTTGTGACCAATTTTCGTATGTTGTTTCTCCTGGCGGAGTCACCTAGTGCAG”, for which the binding signal was 4030 fluorescence intensity (a.u.).
Then “GATTTAAATTAGATGGAAGGTTGAGAATTAAGCTGATCCTCGGAGTCACCTAGTGCAG”, with 13600 fluorescence intensity (a.u.).
Then “CATCTCTATGATTGCCTCTAGGGCATATCACTAACACTAACGGAGTCACCTAGTGCAG”, with 16400 fluorescence intensity (a.u.); and “GTGGTCCGGTGGTGGGGTGATGGGGCGTGGCGGTTCTGTCCGGAGTCACCTAGTGCAG”, with 3940 fluorescence intensity (a.u.); and “CAAATTGGTGGGTGATTGCTAATTTATAACTGTTCGTATTCGGAGTCACCTAGTGCAG”, with 64100 fluorescence intensity (a.u.).
“ATGATAAATGGATTACTTACATGACGTTTGCCTATCGATCCGGAGTCACCTAGTGCAG”: the binding signal was 17500 fluorescence intensity (a.u.).
The same measure for “GGTCGCCGGATCGCGGGAGGGAGGGAGGGAGGGAGGGAGGCGGAGTCACCTAGTGCAG”: 7230 fluorescence intensity (a.u.).
The same measure for “TTACATGATTATGTTAATTACTACACAATTATAGGGCCTACGGAGTCACCTAGTGCAG”: 42500 fluorescence intensity (a.u.).
The same measure for “TGATTATGATTGGAGTCCCTGGCAAAGTTTGGCCGAGTTCCGGAGTCACCTAGTGCAG”: 21700 fluorescence intensity (a.u.).
In the case of “TTAGTAAATAGTCAATTAATCATGTACCGATCAAATGAATCGGAGTCACCTAGTGCAG”, the binding signal is 16900 fluorescence intensity (a.u.).
Then “GTGATGTCTTATTGACATGACATCATAGACACTACTTATACGGAGTCACCTAGTGCAG”, with 5410 fluorescence intensity (a.u.); and “CGCTTCGAGTTAATTAACGAAATCTCAAGGGATCATTACGCGGAGTCACCTAGTGCAG”, with 14700 fluorescence intensity (a.u.).
